Data published in the supplement of paper PMC12067093, “Discovery and optimisation of a covalent ligand for TRIM25 and its application to targeted protein ubiquitination” (Chemical Science, 2025).
Targets with the largest changes are over-represented here; the source holds about 21,000 in all.

Compound: Cc1cc(ccc1-c1ccccc1)C(=O)N1CCCN(CC1)C(=O)CCl [compound 10]
Assay: probe-labelled cysteine peptide fold change vs DMSO (competition) (log2 fold change); higher = less target engagement (more negative = stronger competition)
Conditions: THP-1, incubation time: 4 h
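Also: competitive profiling in live THP-1 cells: cysteine peptides tagged with an iodoacetamide desthiobiotin (IA-DTB) probe, intensity after compound treatment relative to DMSO-treated cells.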

Target	probe-labelled cysteine peptide fold change (10 µM)	probe-labelled cysteine peptide fold change (50 µM)
HCFC1_P51610_227_KSKLVIYGGMSGCR (UniProt P51610)	0.0274	0.366
GSN_P06396_228_ATEVPVSWESFNNGDCFILDLGNNIHQWCGSNSNR (UniProt P06396)	0.116	0.015
FMC1_Q96HJ9-2_256_VCEVCSAYLGLHDNDR<|>LUC7L_Q9NQ29_190_VCEVCSAYLGLHDNDR (UniProt Q9NQ29+Q96HJ9)	0.16	-0.243
H2AFY_O75367_276+286_FVIHCNSPVWGADKCEELLEK (UniProt O75367)	-0.119	-0.319
HELQ_Q8TDG4_149_HATDFATENLCSESIK (UniProt Q8TDG4)	0.0211	-0.0532
GPX4_P36969_102_ILAFPCNQFGK (UniProt P36969)	0.649	0.575
GPX1_P07203_115_CEVNGAGAHPLFAFLR (UniProt P07203)	-0.00215	-0.045
GFM1_Q96RP9_256_QELIECVANSDEQLGEMFLEEK (UniProt Q96RP9)	-0.271	-0.0169
HLA-C_P04222_345_GGSCSQAASSNSAQGSDESLIACKA (UniProt P04222)	-0.172	-1.32
HAUS7_Q99871_348_KQQGEQICWGGSSSVMSLATK (UniProt Q99871)	-0.205	-1.08
FUS_P35637_428_CPNPTCENMNFSWR (UniProt P35637)	0.244	0.255
HEATR5B_Q9P2D3_870_CAAGEALGR (UniProt Q9P2D3)	-0.0657	-0.132
FTSJ3_Q8IY81_52_ALLDLCAAPGGWLQVAAK (UniProt Q8IY81)	-0.175	0.00307
HDGF_P51858_108_KSCVEEPEPEPEAAEGDGDKK (UniProt P51858)	-0.377	-1.45
FKBP5_Q13451_103_KGEICHLLCK (UniProt Q13451)	0.0874	0.295
GLRX3_O76003_146_KLTHAAPCMLFMK (UniProt O76003)	-0.359	-1.17
GATAD1_Q8WUU5_223_KMEYLEFVCHAPSEYFK (UniProt Q8WUU5)	0.112	-0.000608
HDAC2_Q92769_13_KVCYYYDGDIGNYYYGQGHPMKPHR (UniProt Q92769)	-0.0165	-0.651
HERC2_O95714_4308_VACGSAHTLAWSTSK (UniProt O95714)	0.156	0.174

Target	probe-labelled cysteine peptide fold change (10 µM)	probe-labelled cysteine peptide fold change (50 µM)
FHOD1_Q9Y613_977_IMQFCHTLR (UniProt Q9Y613)	0.161	0.241
GSDMD_P57764_56_CVNLSIKDILEPDAAEPDVQR (UniProt P57764)	0.0269	-1.36
HADHA_P40939_97+110_PGCFIAGADINMLAACK (UniProt P40939)	0.00312	-0.0502
GSN_P06396_672_LFACSNK (UniProt P06396)	0.00574	-0.0536
FN3KRP_Q9HA64_24_ATGHSGGGCISQGR (UniProt Q9HA64)	-0.318	-1.31
GOT2_P00505_295_VGAFTMVCK (UniProt P00505)	0.161	-0.0058
GLA_P06280_378_GVACNPACFITQLLPVKR (UniProt P06280)	0.251	-0.118
HERC1_Q15751_4811_VDRPYDSLPTSQTCFFQLR (UniProt Q15751)	-0.0658	-0.697
HCCS_P53701_46_GCPVNTEPSGPTCEK (UniProt P53701)	-0.347	-1.01
GALM_Q96C23_247_HLQDFHLNGFDHNFCLK (UniProt Q96C23)	0.105	0.00436
HERC4_Q5GLZ8_175_YGQLGLGTDCKK (UniProt Q5GLZ8)	-0.262	-0.765
FKBP4_Q02790_103+107_VGEVCHITCKPEYAYGSAGSPPK (UniProt Q02790)	0.262	-0.123
GLA_P06280_223_QYCNHWR (UniProt P06280)	0.134	-0.0482
GBF1_Q92538_1588_LDALEWESCFNK (UniProt Q92538)	-0.0251	0.114
FTH1_P02794_91_KPDCDDWESGLNAMECALHLEK (UniProt P02794)	1.54	0.825
HLA-C_P04222_364_GGSCSQAASSNSAQGSDESLIACKA (UniProt P04222)	-0.585	-1.41
GGA2_Q9UJY4_93_EALYALTVLEMCMNHCGEK (UniProt Q9UJY4)	0.118	-0.244
GLG1_Q92896_140_HTWSNNLAVLECLQDVR (UniProt Q92896)	-0.0255	0.0447
